Measured values from PMC4336329 (PLoS ONE, 2015).
The whole screen tested about 310,000 compounds, of which about 14,000 (4.5%) showed an effect of 50% or more. Effects have a minus sign here. This is one part of the list.

biological target: human ether-à-go-go-related gene (hERG) potassium channel (human, UniProt Q12809); assay: primary screen, population patch clamp on CHO cells stably expressing hERG
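Note: peak tail current of the secondary pulse compared with the same well before compound.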

Chain of human ether-à-go-go-related gene (hERG) potassium channel (Q12809 whole entry, looked up): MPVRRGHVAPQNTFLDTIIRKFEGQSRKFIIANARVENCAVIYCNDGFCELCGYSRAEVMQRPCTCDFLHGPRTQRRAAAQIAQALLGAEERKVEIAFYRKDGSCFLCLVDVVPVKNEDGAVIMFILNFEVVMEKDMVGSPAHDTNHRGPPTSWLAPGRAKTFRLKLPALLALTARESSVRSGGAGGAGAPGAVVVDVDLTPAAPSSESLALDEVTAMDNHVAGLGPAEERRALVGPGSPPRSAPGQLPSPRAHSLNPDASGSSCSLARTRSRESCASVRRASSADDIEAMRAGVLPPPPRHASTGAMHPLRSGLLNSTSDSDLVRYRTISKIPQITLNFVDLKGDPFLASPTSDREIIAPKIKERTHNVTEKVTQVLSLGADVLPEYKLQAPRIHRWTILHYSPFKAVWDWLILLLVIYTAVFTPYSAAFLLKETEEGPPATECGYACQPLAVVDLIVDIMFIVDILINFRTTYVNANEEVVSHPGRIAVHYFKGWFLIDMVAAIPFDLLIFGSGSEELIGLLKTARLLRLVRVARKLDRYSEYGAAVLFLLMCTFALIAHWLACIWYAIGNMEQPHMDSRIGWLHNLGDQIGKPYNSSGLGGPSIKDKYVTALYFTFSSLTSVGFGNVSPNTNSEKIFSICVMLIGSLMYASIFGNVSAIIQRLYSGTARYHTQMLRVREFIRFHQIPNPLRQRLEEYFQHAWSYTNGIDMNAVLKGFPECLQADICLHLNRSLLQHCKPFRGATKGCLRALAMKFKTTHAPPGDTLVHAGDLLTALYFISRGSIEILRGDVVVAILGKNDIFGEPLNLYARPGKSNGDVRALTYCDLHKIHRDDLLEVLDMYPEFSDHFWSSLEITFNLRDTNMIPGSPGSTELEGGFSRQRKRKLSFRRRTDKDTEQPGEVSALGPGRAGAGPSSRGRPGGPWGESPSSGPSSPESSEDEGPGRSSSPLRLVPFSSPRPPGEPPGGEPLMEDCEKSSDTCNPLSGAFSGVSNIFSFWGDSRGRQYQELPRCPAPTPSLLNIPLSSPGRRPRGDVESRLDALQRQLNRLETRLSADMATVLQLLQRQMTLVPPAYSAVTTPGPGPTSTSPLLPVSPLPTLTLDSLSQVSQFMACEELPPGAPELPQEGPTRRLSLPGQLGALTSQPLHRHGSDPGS

Going from CCOCCCn1c(=S)[nH]c2cc(C(=O)N3CCN(C)CC3)ccc2c1=O to Cc1cccc(NC(=O)NN2CCN(C)CC2)c1C, the “hERG current change (%, negative = inhibition) at 10uM” value rises from -12.1% to 28.4%.

First: O=C(/C=C/c1ccco1)NC(=S)NNC(=O)c1ccco1
Second: Cc1ccccc1N(C(=O)CNC(=O)c1ccco1)C(C(=O)NC1CCCCC1)c1cccnc1 (stereo not drawn)
The “hERG current change (%, negative = inhibition) at 10uM” value of the first is higher: 23.8% for the first, 14.3% for the second.

Going from COc1ccc([C@@H]2[C@@H]3C(=O)N(C(C)(C)C)C(=O)[C@@H]3[C@]3(CC(C)C)C(=O)N(c4cccc(F)c4)C(=O)N23)cc1 to COCCCN1CC(=O)N2C(c3ccc(C)cc3)c3[nH]c4ccccc4c3C[C@H]2C1=O (stereo partly drawn), the “hERG current change (%, negative = inhibition) at 10uM” value falls from 22.6% to -45.5%.

Compared with COc1cc(C(C)=O)ccc1OCC(=O)N(CCC1=CCCCC1)c1c(N)n(Cc2ccccc2)c(=O)[nH]c1=O, O=C(O)CCc1nnc2n(Cc3ccc(F)cc3)c(=O)c3ccccc3n12 is lower in “hERG current change (%, negative = inhibition) at 10uM” value: 9.5% for the first, 6.3% for the second.

Compared with COC(=O)c1sccc1NC(=O)Nc1ccc(C)cc1, Cc1ccc(NC(=O)CN(C)C(=O)Cc2c(Cl)cccc2Cl)cc1 is lower in “hERG current change (%, negative = inhibition) at 10uM” value: 15.4% for the first, 5.81% for the second.

First: Cc1ccccc1N1CCN(S(=O)(=O)c2nnc(NC(=O)c3ccco3)s2)CC1
Second: COc1ccc(C(=O)N2CCOCC2)cc1S(=O)(=O)N1CCCc2ccccc21
The “hERG current change (%, negative = inhibition) at 10uM” value of the first is higher: 3.69% for the first, -31.4% for the second.

Going from COn1c(-c2ccc(Cl)cc2Cl)nc2ncccc21 to Cn1c(COc2ccc(Cl)cc2)nc2ccccc2c1=O, the “hERG current change (%, negative = inhibition) at 10uM” value falls from -1.12% to -30.1%.

First: O=C(NCCCn1ccnc1)C(=O)Nc1ccccc1
Second: O=C(/C=C\c1ccccc1[N+](=O)[O-])Nc1ccccc1
The “hERG current change (%, negative = inhibition) at 10uM” value of the first is lower: 11.8% for the first, 12.4% for the second.

First: N#Cc1cccc(NC(=O)Cn2cnc(S(=O)(=O)N3CCCCC3)c2)c1
Second: CC(=O)Nc1cccc(N=NN2CCCCC2)c1
The “hERG current change (%, negative = inhibition) at 10uM” value of the first is higher: 9.25% for the first, 7.1% for the second.

Compared with Cc1ccc(C(=O)OCC(=O)Nc2ccc3[nH]c(=O)[nH]c3c2)cc1S(=O)(=O)N1CCOCC1, CN(Cc1c(F)cccc1Cl)c1ccc(S(=O)(=O)N2CCOCC2)cn1 is higher in “hERG current change (%, negative = inhibition) at 10uM” value: 4.19% for the first, 6.42% for the second.

Compared with CN(C)CC(C(=O)c1ccccc1)c1ccccc1.Cl (stereo not drawn), O=C(CSc1cccc[n+]1[O-])NN(c1ccccc1)c1ccccc1 is higher in “hERG current change (%, negative = inhibition) at 10uM” value: -13.2% for the first, 12.4% for the second.

Going from O=C(NC(=S)NC1CCCCCC1)c1cncc(Br)c1 to O=C(COC(=O)CNC(=O)c1ccc(Cl)cc1Cl)NC1CCCCCCC1, the “hERG current change (%, negative = inhibition) at 10uM” value falls from 16.8% to 15.8%.

Compared with CCn1c(SCC(=O)c2[nH]c(C)c(C(C)=O)c2C)nnc1-c1cccs1, CCOC(=O)C1=C(C(C)=O)C(c2cccnc2)C(C#N)=C(N)O1 (stereo not drawn) is higher in “hERG current change (%, negative = inhibition) at 10uM” value: -24.8% for the first, 3.51% for the second.

Going from O=C(CSc1cccs1)Nc1ccc(Cl)cc1 to CCCNC(=O)CC(NS(=O)(=O)c1ccc(Cl)cc1)c1ccco1 (stereo not drawn), the “hERG current change (%, negative = inhibition) at 10uM” value falls from 4.57% to -10.1%.

First: CC(=O)NCCc1ccc(S(=O)(=O)N(C)C2CCS(=O)(=O)C2)cc1 (stereo not drawn)
Second: CNC(=S)NCCc1ccc(OC)cc1
The “hERG current change (%, negative = inhibition) at 10uM” value of the first is lower: 6.71% for the first, 17% for the second.

Compared with Cc1ccc(C)n1-c1sc2c(c1C#N)CCCC2, COc1ccc(-n2c(=O)c(NC(=O)c3ccccc3)c3n(c2=S)CCCCC3)cc1 is lower in “hERG current change (%, negative = inhibition) at 10uM” value: 0.63% for the first, -3.03% for the second.

Going from Cc1nn(C)c(Oc2cccc(Cl)c2)c1C=O to CCn1c(=O)cc(NC2=NCC(C)CN2c2cccc(Cl)c2)n(C)c1=O (stereo not drawn), the “hERG current change (%, negative = inhibition) at 10uM” value falls from 8.1% to -16.9%.

First: CN(C)CCNC(=O)c1sc2cccc(F)c2c1Cl
Second: COC(=O)c1sccc1-c1ccc(/C=N/OCc2c(Cl)cccc2Cl)o1
The “hERG current change (%, negative = inhibition) at 10uM” value of the first is lower: -19.9% for the first, -1.86% for the second.

First: Cc1ccc(NC(=O)CN2C(=O)N/C(=C/c3cccn3-c3ccc(C(=O)O)cc3)C2=O)cc1
Second: Cc1ccc(C2(C)NC(=O)N(CC(=O)Nc3cccnc3Cl)C2=O)cc1 (stereo not drawn)
The “hERG current change (%, negative = inhibition) at 10uM” value of the first is higher: 24.8% for the first, 23.8% for the second.

Going from Cc1[nH]c2ccccc2c1CCNCc1cccnc1.Cl to c1cncc(CN=C2Nc3ccccc3CS2)c1, the “hERG current change (%, negative = inhibition) at 10uM” value falls from 7.81% to -4.61%.

Compared with O=C(O)c1cc([N+](=O)[O-])ccc1C(=O)Nc1cccc([N+](=O)[O-])c1, CCn1c2ccccc2c2cc(NC(C)=O)ccc21 is lower in “hERG current change (%, negative = inhibition) at 10uM” value: 8.76% for the first, 7.2% for the second.

Going from CCc1nc2ccccc2c(=O)n1-c1ccccc1OC to COc1ccccc1N1C(=O)c2ccccc2NC1c1ccc(O)cc1 (stereo not drawn), the “hERG current change (%, negative = inhibition) at 10uM” value rises from 2.58% to 11.3%.

First: CC(C)(C)NC(=O)COc1ccc(CNc2ncn[nH]2)cc1
Second: CC(C)c1ccc(OCc2ccc(C(=O)O)o2)cc1
The “hERG current change (%, negative = inhibition) at 10uM” value of the first is higher: 7.04% for the first, -4.08% for the second.

Compared with COCc1cc(CN2CCCC(C(=O)Nc3ccc(-c4ccco4)cc3)C2)ccc1OC (stereo not drawn), COc1ccc(S(=O)(=O)N2CCC(C(=O)Oc3ccc(C)cc3)CC2)cc1OC is higher in “hERG current change (%, negative = inhibition) at 10uM” value: -7.12% for the first, 10.6% for the second.

Compared with COc1ccc(OC)c(Nc2ncnc3ccc(Br)cc23)c1, COc1ccc(Cl)cc1NC(=O)CC(=O)Nc1cc(Cl)ccc1OC is higher in “hERG current change (%, negative = inhibition) at 10uM” value: 13% for the first, 20.3% for the second.

Going from C#CCOCCOCCOCCNc1nc(N2CCN(C(=O)[C@H]([C@@H](C)O)n3cc(CCCC[NH3+])nn3)CC2)nc(N2CCN(C(=O)[C@H]([C@@H](C)CC)n3cc(CCCC[NH3+])nn3)CC2)n1.[Cl-] to CCOC(=O)C1CCCN(c2nc3c(C)cccn3c(=O)c2/C=C(\C#N)C(=O)NCc2ccco2)C1 (stereo not drawn), the “hERG current change (%, negative = inhibition) at 10uM” value falls from 29.7% to -49.7%.

First: COc1ccc(OCCN2C(=O)NC3(CCc4ccccc4C3)C2=O)cc1 (stereo not drawn)
Second: CC(C)(OC(=O)c1ccc(C#N)cc1)c1cc2ccccc2c(=O)o1
The “hERG current change (%, negative = inhibition) at 10uM” value of the first is higher: -49.7% for the first, -73.1% for the second.

Compared with COc1ccccc1NC(=S)N1CCOCC1, Cl.OC(CC#CCN1CCOCC1)(c1ccccc1)c1ccccc1 is lower in “hERG current change (%, negative = inhibition) at 10uM” value: 19.5% for the first, 5.69% for the second.

Compared with CC1(C)c2[nH]c3ccccc3c2C[C@@H]2C(=O)N(Cc3ccco3)C(=O)N21, CC(C)=C1C2CCC1C1C(=O)N(CCc3ccccc3)C(=O)C21 (stereo not drawn) is lower in “hERG current change (%, negative = inhibition) at 10uM” value: 4.71% for the first, -8.65% for the second.

Going from COc1ccc(-c2[nH]ncc2CN(CCO)CC23CC4CC(CC(C4)C2)C3)c(OC)c1 to CCc1ccc(N=C2NC(=O)/C(=C/c3cc(OC)c(O)c(OC)c3)S2)cc1, the “hERG current change (%, negative = inhibition) at 10uM” value rises from -0.414% to 14.2%.

Going from COc1ccc(N2C(=O)/C(=C/N(C)C)NC2=S)cc1 to C=CCOc1ccc2c(OC)c3ccoc3nc2c1OC, the “hERG current change (%, negative = inhibition) at 10uM” value falls from 14.9% to 2.88%.

First: CCOC(=O)c1oc2cc(O)cc(O)c2c(=O)c1OCc1ccccc1
Second: CCO[C@@H]1OC(C(=O)Nc2ccccc2)=C[C@H](c2coc3ccccc3c2=O)[C@H]1CCCO
The “hERG current change (%, negative = inhibition) at 10uM” value of the first is higher: 15.2% for the first, -50.9% for the second.

Going from O=C(CSc1ncn[nH]1)Nc1c(Br)cc([N+](=O)[O-])cc1Br to Cc1nn(CCCC(=O)Nc2c(F)cc(F)cc2Br)c(C)c1[N+](=O)[O-], the “hERG current change (%, negative = inhibition) at 10uM” value falls from 6.61% to -21.6%.

Going from CC(C)(C)OC(=O)N1CCC[C@H]1C(=O)Nc1ccc(Br)cc1 to COc1ccc(C(C)(C)C)cc1NC(=O)COC(=O)c1cc(SC)ccc1Cl, the “hERG current change (%, negative = inhibition) at 10uM” value falls from 13.5% to 6.91%.

Compared with CC(C)C(=O)NC(NC(=S)Nc1cccc2cccnc12)C(Cl)(Cl)Cl (stereo not drawn), S=C(NCc1ccccn1)Nc1ccc(Cl)c(Cl)c1 is lower in “hERG current change (%, negative = inhibition) at 10uM” value: 19.7% for the first, 3.45% for the second.

Compared with Cc1ccc(S(=O)(=O)N2CCN(C)CC2c2ccccc2)cc1.Cl (stereo not drawn), O=C(N=C1N=C2C=CC=CN2Cc2ccccc21)c1ccc(S(=O)(=O)N2CCOCC2)cc1 is higher in “hERG current change (%, negative = inhibition) at 10uM” value: -8.35% for the first, 7.24% for the second.

Compared with CC(=O)Nc1ccc(NC(=O)CCC(=O)OCC(=O)c2ccc(F)cc2)cc1, O=C(CNC(=O)c1ccc(OC(F)F)cc1)NCc1ccccn1 is lower in “hERG current change (%, negative = inhibition) at 10uM” value: 16.6% for the first, -70.9% for the second.

Going from O=c1c2cc(O)c(O)cc2oc2cc(O)c(C3OC(CO)C(O)C(O)C3O)c(O)c12 (stereo not drawn) to Cc1ccc(-c2nnc(Nc3ccc(CC(N)=O)cc3)c3ccccc23)cc1S(N)(=O)=O, the “hERG current change (%, negative = inhibition) at 10uM” value falls from 17.9% to 6.75%.

Compared with O=C(Cc1c[nH]c2ccccc12)NCc1cccs1, CCOCCCNC(=O)C(Cc1ccccc1)NS(=O)(=O)c1cccc2nsnc12 (stereo not drawn) is higher in “hERG current change (%, negative = inhibition) at 10uM” value: -2.55% for the first, 7.58% for the second.

First: N#CCSc1nc2ccccc2c(=O)n1CCCC(=O)NCC1CCCO1 (stereo not drawn)
Second: Cc1ccc(/C=N/NC(=O)CSc2nc3ccccc3o2)cc1
The “hERG current change (%, negative = inhibition) at 10uM” value of the first is lower: -12.4% for the first, 3.66% for the second.

First: CC(C)Nc1nc2n(c(=O)n1)CCN2C(C)C
Second: CCn1nnc(NC(=O)C(C)Oc2ccc(Cl)cc2Cl)n1 (stereo not drawn)
The “hERG current change (%, negative = inhibition) at 10uM” value of the first is higher: 3.15% for the first, 2.78% for the second.

Compared with CC(CCc1ccccc1)NC(=O)CN1CCN(c2ccccc2)CC1 (stereo not drawn), CC1CCCN(S(=O)(=O)c2ccc3c(c2)c(=O)nc2ccc(Cl)cn23)C1 (stereo not drawn) is higher in “hERG current change (%, negative = inhibition) at 10uM” value: -55.8% for the first, -10.5% for the second.

First: COc1ccc(NC2CCCN(C(=O)c3ccc4nc(C)c(C)nc4c3)C2)cc1OC (stereo not drawn)
Second: Cc1cc2c(OCC(O)CNC(C)(C)C)cccc2[nH]1 (stereo not drawn)
The “hERG current change (%, negative = inhibition) at 10uM” value of the first is higher: 14% for the first, 11.6% for the second.

O=C(NN=C1CCC(=NNC(=O)c2cccnc2)CC1)c1cccnc1 was tested, and the “hERG current change (%, negative = inhibition) at 10uM” value was 39.4%.
